Test results published in the supplement of paper PMC3334620.
Whole data set: some 33,000 sequences, median “E-score (-0.5 to 0.5)” near -0.016, cut for the highest 2% near 0.31. The list shows a part of the results.

What follows are sequences tested against Cst6 (UniProt P40535) (assay: PBM E-score (8-mer binding enrichment) (E-score (-0.5 to 0.5)); higher = stronger / more preferred TF binding; most listed sequences are background and not binding sites). Conditions: protein concentration: 200 nM; construct: GST-DNA-binding domain.
In short: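 Using PURExpress in vitro transcription/translation, GST-tagged yeast transcription factors were made in full-length or DNA-binding-domain form. These were applied at about 100-200 nM to double-stranded universal all-10-mer Agilent arrays, and bound protein was detected with fluorescent anti-GST. Scans were normalised with masliner before the Universal PBM Analysis Suite assigned E-scores to ungapped eight-base words pooled with their reverse complements.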

| Sequence | PBM E-score |
| --- | --- |
| GCACACGA | -0.0195 |
| CGAGGGCA | -0.0872 |
| ATCGCTAA | 0.0468 |
| ACACAACG | 0.21 |
| ACTAGACC | 0.0503 |
| AACTCGCC | -0.0101 |
| ATCGGTGC | -0.112 |
| AATCATTC | 0.204 |
| ACTTACCG | 0.108 |
| CACCTGTA | -0.171 |
| GGAGGCAC | 0.00729 |
| ATACAAAG | 0.151 |
| AAGCCGTA | 0.173 |
| GTGGGTCA | -0.138 |
| AAGGCAGT | 0.0518 |
| AAGGCATA | 0.0537 |
| ACGCATGG | -0.0922 |
| GATATCGC | 0.1 |
| ACGTACGG | 0.149 |
| GAATAGAA | 0.189 |
| AGACCGAA | 0.148 |
| CTGCTAAG | -0.279 |
| AACAGCGT | 0.05 |
| CAAACCCC | -0.178 |
| CGTGACGC | 0.436 |

| Sequence | PBM E-score |
| --- | --- |
| AATCAGCT | 0.186 |
| ACAAAGAA | 0.247 |
| GAATAAGC | -0.0595 |
| GATCGGAA | -0.108 |
| ATTAACTG | 0.24 |
| GATAATGC | 0.0433 |
| GTCTCCTA | -0.133 |
| CTGAGGCC | -0.161 |
| TGCTAGAA | -0.0779 |
| AGTTGCTA | 0.102 |
| CAGACACA | 0.0923 |
| CACGGGCG | -0.139 |
| CTAGGGTC | -0.241 |
| AGGCACAG | -0.0933 |
| ATCGGTAA | 0.135 |
| AGCCTTGA | -0.0193 |
| CGAATAAA | 0.154 |
| CGAGGCAA | 0.151 |
| TCACTCGA | 0.158 |
| CGCACGCA | -0.056 |
| CAGGGACA | -0.119 |
| GTATTTCA | 0.196 |
| AGCTCGGA | -0.261 |
| ACGGATTC | 0.0332 |
| TATGCGGA | -0.00967 |

| Sequence | PBM E-score |
| --- | --- |
| AGACGGGC | -0.128 |
| AAGTCTCT | -0.212 |
| ATCTACAG | 0.0349 |
| CAATGTGA | 0.242 |
| GAGCTCAC | 0.046 |
| GCTGGCCA | -0.231 |
| CCTACTTA | 0.00339 |
| ACAGACAA | 0.206 |
| ACCAAGGT | -0.0517 |
| TCTGTAAA | 0.0688 |
| ACCATCCT | 0.00882 |
| AAATATCG | 0.166 |
| CGCTGGGA | -0.331 |
| AGTGTTGG | -0.0779 |
| GAGGCGCC | 0.171 |
| CGTTGTTA | 0.228 |
| CGAGTACG | -0.0588 |
| CAACTACG | 0.0911 |
| TAGGAAGA | -0.256 |
| CACCCCAC | 0.0277 |
| AGGATACT | -0.0963 |
| ACGCATTA | 0.126 |
| AGAATAGA | 0.0439 |
| ACCAGCAT | -0.104 |
| ATTTAGGG | 0.13 |

| Sequence | PBM E-score |
| --- | --- |
| CCGTCACC | 0.411 |
| ACATCAGG | 0.163 |
| AGAGGGCT | -0.381 |
| AACGTTCT | -0.0688 |
| ATGCCATA | 0.118 |
| ACGGAAGT | 0.0136 |
| CGGATGTC | -0.0678 |
| TCGACAGA | -0.146 |
| CGCGACCC | -0.0916 |
| CAATTCTG | -0.0283 |
| TGCTAAAA | 0.0547 |
| GCTGAATA | 0.0801 |
| AATGGTCA | 0.106 |
| AAAAAAGC | 0.177 |
| CACTATCC | -0.0761 |
| CCGATGGC | -0.184 |
| GATCGGCA | -0.00629 |
| GATTGCTA | -0.0542 |
| AGCCCTTG | -0.222 |
| TAGATCGA | 0.0266 |
| GGGAGAAC | -0.274 |
| ATTGTTTG | 0.245 |
| TCAGTTCA | 0.0549 |
| GTGTGAAC | -0.0473 |
| AACCCTGT | -0.169 |

| Sequence | PBM E-score |
| --- | --- |
| AAGGTAAC | 0.142 |
| ACTTGCAA | 0.122 |
| TGGGCACA | 0.135 |
| ATGGGCAA | -0.201 |
| CCACTGCC | -0.146 |
| CTCAAGAA | -0.0835 |
| GGATGAAA | 0.11 |
| CATGGAAC | -0.192 |
| CTTCTAGC | -0.323 |
| AACGCAAA | 0.166 |
| ATAACGCG | 0.105 |
| GCATTAAA | 0.163 |
| CGGCGTAC | 0.165 |
| GATAGCGC | -0.152 |
| AGATGGCC | -0.0799 |
| ACTACTCG | 0.0537 |
| CCGAAGGC | -0.236 |
| ACAAAAAT | 0.279 |
| AACACCAT | 0.135 |
| AGAAGTGA | 0.0777 |
| ATCTTAGC | -0.013 |
| ATGATCAC | 0.186 |
| AACATATT | 0.173 |
| GGTCATTA | 0.178 |
| CACCGTGA | 0.00413 |

| Sequence | PBM E-score |
| --- | --- |
| ACGCCGCT | 0.233 |
| ACCCGCAG | 0.0209 |
| AAACCTAC | 0.0437 |
| CATAGTCC | -0.105 |
| AGAACCAT | 0.114 |
| GATCTGCA | -0.168 |
| TAATTTAA | 0.287 |
| ACGCAAGC | 0.0892 |
| TCTTCTAA | 0.0328 |
| AGCAGTTA | 0.0215 |
| CTTCTCTA | -0.169 |
| AATACCTC | 0.0348 |
| AAGCCGCC | -0.157 |
| ACTAAGGG | -0.247 |
| AGAGTACC | -0.135 |
| GCACCACA | -0.0967 |
| TAACGAGA | 0.159 |
| AGCACCAG | -0.0966 |
| CCGCCTCC | -0.227 |
| AAGTTCTA | -0.172 |
| CGACCTTA | 0.0749 |
| AATAGGTA | 0.0621 |
| AAAACCAT | 0.144 |
| AGATGTGC | -0.0582 |
| TTATTGAA | 0.128 |

| Sequence | PBM E-score |
| --- | --- |
| CGGTGGCA | -0.151 |
| GCCGCTAA | 0.0534 |
| AGCTGTAC | -0.285 |
| ATTCATGG | 0.0757 |
| CAATTCTA | 0.069 |
| ACCTGCAA | -0.179 |
| CGCCAAGA | -0.161 |
| ATACATGA | 0.176 |
| CCCATGGA | -0.219 |
| CATTGAAA | 0.241 |
| CGCTTGTA | 0.0352 |
| GAGTCACC | 0.0602 |
| ACCTAGGA | -0.167 |
| GCCGGCAA | -0.108 |
| AAAGGGAG | -0.152 |
| CTATTGTA | 0.133 |
| ACACTGGG | -0.312 |
| ATATCTTA | 0.114 |
| ACGCCAGG | -0.193 |
| AACTTACT | -0.041 |
| GGAATGCC | 0.0445 |
| TCATCTCA | 0.159 |
